Source: PubChem BioAssay AID651820 (National Center for Advancing Translational Sciences (NCATS), 2012)
“And” between values parts separate entries of the source, which are not always exact repeats. Equal values may be shown once. In all, about 340,000 compounds went through this assay and about 12,000 (3.5%) were called active. This list was built around the results that the source calls inconclusive (neither active nor inactive); the mix of calls is not that of the screen. Calls come from the whole dose curve; as a rule, active = well fitted inhibition curve with a large enough effect; inconclusive = small, poorly fitted or top-dose-only effect, or another doubt; inactive = no such curve, though single readings can be large or run the other way. Where the call is inconclusive, the potency comes from a doubtful curve fit.

Assay: qHTS Assay for Inhibitors of Hepatitis C Virus (HCV)
Conditions: Huh7.5.1 HCVcc-Cre (HCVcc is cell-culture hepatitis C virus) infection, luciferase reporter, 44 h; activity change, negative = inhibition: at 41.8 µM (top of the series) unless noted
How it was run: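 Infectious HCVcc-Cre (~0.5 moi) was added to cells just after compound, with cells seeded 4 h earlier at 1,000 per well. Luciferase activity after 44 h culture reported infection; substrate was incubated 15 min at room temperature before reading.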
% is set by controls: 0 for no effect and ±100 for the full control effect; potency is the fitted concentration of half-maximal effect; tags give direction and shape of the fitted curve.

Structure (SMILES) | Potency | activity change, negative = inhibition
C#CCn1cc(Cl)cc(C(=O)Nc2ccccc2)c1=O | inconclusive: 10 µM [inhibitor, partial curve, poor fit] | 
Cc1ccc(NC(=O)COc2ncnc3cc([N+](=O)[O-])ccc23)cc1S(=O)(=O)N1CCOCC1 |  | inactive: -26.2%
Cc1onc(-c2ccccc2Cl)c1C(=O)OCc1nnc(-c2ccccc2)o1 | inconclusive: 31.6 µM [inhibitor, single point] | 
CCOC(=O)c1sc(N(Cc2ccccc2)C(=O)CCl)nc1C | active: 17.8 µM | 
CCc1ccc(OCCNC(=O)c2ccccc2SCc2ccccc2)cc1 | inconclusive: 31.6 µM [inhibitor, single point] | 
O=C(CCc1ccccn1)NC1CCCc2c1cnn2-c1ccc(F)cc1F (centres undefined) | inconclusive: 8.91 µM [inhibitor, partial curve] | 
CC(Sc1nnnn1-c1ccc(O)cc1)C(=O)NNC(=O)c1ccc(F)cc1 (centres undefined) | active: 7.08 µM | 
CCN1/C(=C\C(C)=O)Sc2ccc(OC)cc21 |  | inactive: -4.77%
COC(=O)c1c(NC(C)=O)sc2c1CCCC2 | inconclusive: 22.4 µM [inhibitor, single point] | 
CCOC(=O)C1(CCOc2ccccc2)CCN(Cc2cccc(OC)c2OC)CC1 | active: 28.2 µM | 
Clc1cccc(Nc2nc(-c3cccnc3)cs2)c1 | active: 2.82 µM | 
CC(=O)NCCC(=O)Nc1cc(S(=O)(=O)N2CCCCC2)ccc1N1CCN(C)CC1 |  | inactive: 6.78%
CC1CCC(C(C)C)C(OC(=O)Cn2c(COc3ccccc3)[n+](C)c3ccccc32)C1 (centres undefined) | active: 12.6 µM | 
NNS(=O)(=O)c1ccc(Sc2ccccn2)c([N+](=O)[O-])c1 |  | inactive: 8.53%
Cc1cccc(NC(=O)CN2C(=O)N/C(=C\c3cccn3-c3cccc(C(=O)O)c3)C2=O)c1 | inconclusive: 35.5 µM [inhibitor, partial curve, poor fit] | 
CCCN[C@H]1CCc2nc(N)sc2C1 |  | inactive: 10%
COc1ccccc1C(CNC(=O)c1cccc(S(=O)(=O)N2c3ccccc3CC2C)c1)N(C)C (centres undefined) | inconclusive: 11.2 µM [inhibitor, single point] | 
CN(C(=O)c1ccco1)c1nnc(C23CC4CC(CC(C4)C2)C3)s1 | inconclusive: 11.2 µM [inhibitor, partial curve] | 
CN(C)CCOc1ccc(-c2c(-c3ccccc3)sc3ccccc23)cc1 | inconclusive: 11.2 µM [inhibitor, partial curve] | 
Cc1ccc(NC(=O)c2cc3c(s2)CCCC3)cc1S(=O)(=O)Nc1ccccc1Cl | inconclusive: 7.08 µM [inhibitor, partial curve] | 
CC(Cn1cnc2ccccc21)C(=O)O (centres undefined) |  | inactive: -2.01%
COc1ccc(C(=O)NCC(=O)N/N=C/C(C)=C/c2ccco2)cc1OC | inconclusive: 7.94 µM [inhibitor, partial curve] | 
COc1ccc(-c2ccc(C)cc2)cc1[C@H]1[C@H]2C=CC[C@@H](C)[C@@H]2C(=O)N1Cc1ccccc1 |  | inactive: -1.49%

Structure (SMILES) | Potency | activity change, negative = inhibition
O=C1NC(=O)C(CCc2ccncc2)(CCc2ccncc2)C(=O)N1CCc1ccccc1 |  | inactive: 3.59%
C=CCNC(=O)C(=O)Nc1cc2c3c(c1)CCC(=O)N3CCC2 | inconclusive: 31.6 µM [inhibitor, single point] | 
Cc1ccc(-c2cn3c(=O)cc(C)[nH]c3n2)cc1 |  | inactive: 2.34%
CCN(CC)CC(=O)Nc1ccc2c(c1)N(C(=O)CN(CC)CC)c1ccccc1CC2 | inconclusive: 10 µM [inhibitor, partial curve] | 
O=C(CSc1ncnc2c1cnn2-c1ccc(Cl)cc1)NCc1ccc2c(c1)OCO2 |  | inactive: 17.8%
COc1ccc(CNC(=O)c2c(O)c3cccc4c3n(c2=O)CCC4)cc1 | inconclusive: 4.47 µM [inhibitor, partial curve] | 
COc1ccc(-n2c(=S)[nH]c3cc(C(=O)NCCCN4CCOCC4)ccc3c2=O)cc1OC | inconclusive: 5.01 µM [inhibitor, single point] | 
CCCn1c(N2CCN(CC(=O)NCc3cccs3)CC2)nc2ccccc21 | inconclusive: 11.2 µM [inhibitor, partial curve] | 
Cc1ccsc1C(=O)OCc1csc(-c2ccccc2)n1 |  | inactive: -7.17%
O=C1C2C(c3ccccc3)CC=CC2[C@H](c2cccc([N+](=O)[O-])c2)N1Cc1ccccc1 (some centres undefined) | inconclusive: 2.82 µM [inhibitor, full curve] | 
CCC(C)Sc1ccc(-c2nc3cc(C)ccn3c2NC2CCCCC2)cc1 (centres undefined) | inconclusive: 7.94 µM [inhibitor, single point] | 
CC1Cc2cc(S(=O)(=O)N3CCC(C(=O)NCc4ccco4)CC3)ccc2N1C(=O)C1CCC1 (centres undefined) | inconclusive: 31.6 µM [inhibitor, single point] | 
CCN(CC)c1ccc(NC(=O)c2ccc(S(=O)(=O)N3CCOCC3)cc2)cc1 | inconclusive: 7.94 µM [inhibitor, partial curve, poor fit] | 
Cc1cc(NC(=O)C(C)Sc2nnc(NCc3ccco3)s2)no1 (centres undefined) |  | inactive: 13%
CCOc1cc2c(cc1OCC)C(C(=O)O)C(c1cc(OC)c(OC)c(OC)c1)N(C)C2=O (centres undefined) |  | inactive: 18%
COc1cccc(C2C(C(=O)Nc3nc4ccccc4s3)=C(C)NC3=C2C(=O)CC(C)(C)C3)c1OC (centres undefined) | inconclusive: 2.24 µM [inhibitor, partial curve] | 
COc1ccc2nc(NC(=O)c3ccc(NC(=O)C4CCCO4)cc3)sc2c1 (centres undefined) | inconclusive: 6.31 µM [inhibitor, partial curve] | 
COc1ccc(NS(=O)(=O)c2ccc3c(c2)OCCO3)cc1OC | active: 6.31 µM | 
COc1ccc(C(=O)NC2CCN(S(=O)(=O)Cc3ccccc3)CC2)c(OC)c1 | inconclusive: 7.94 µM [inhibitor, partial curve] | 
O=C1NC2(Nc3ccccc31)C(=O)Nc1ccc(Br)cc12 (centres undefined) | inconclusive: 11.2 µM [inhibitor, partial curve, poor fit] | 
O=S(=O)(c1ccc(NC(=S)Nc2ccc(OC(F)F)cc2)cc1)N1CCOCC1 |  | inactive: 18.6%
CN(C)c1cc[n+](CC(=O)Nc2ccc(Oc3ccccc3)cc2)cc1 | inconclusive: 25.1 µM [inhibitor, partial curve] | 
CCOC(=O)N1CCN(C(=O)C(C)N(c2ccc(Oc3ccccc3)cc2)S(C)(=O)=O)CC1 (centres undefined) | inactive and inconclusive: 6.31 µM [inhibitor, partial curve] | 

Structure (SMILES) | Potency | activity change, negative = inhibition
NC(=S)N=Nc1c(O)n(CCCl)c2ccc(Cl)cc12 | inconclusive: 22.4 µM [inhibitor, single point] | 
CCn1nc(NC(=O)c2ccncc2)c2cc3cc(C)ccc3nc21 | inconclusive: 10 µM [inhibitor, single point] | 
Cc1nc(S(=O)(=O)c2ccc(Cl)cc2)c(NCc2ccccc2)o1 | inconclusive: 3.55 µM [inhibitor, single point] | 
Cc1ncoc1C(=O)N1CCCC(C(=O)c2ccc3c4c(cccc24)CC3)C1 (centres undefined) | inconclusive: 14.1 µM [inhibitor, single point] | 
COc1ccc(CCn2c(SCC(=O)Nc3cc(C)on3)nc3ccsc3c2=O)cc1OC | inconclusive: 8.91 µM [inhibitor, partial curve] | 
O=C1C=C(c2cccc(Br)c2)C[C@@H](c2ccc(Cl)cc2)C1 | inconclusive: 31.6 µM [inhibitor, single point] | 
Cc1cccc(N2CCN(c3nnnn3-c3ccccc3)CC2C)c1 (centres undefined) | inconclusive: 31.6 µM [inhibitor, single point] | 
O=C(Cn1cnc2cc([N+](=O)[O-])ccc2c1=O)NCCc1ccc(Cl)cc1 | active: 14.1 µM | 
C=CCOc1c(Br)cc(CNc2ccc(NC(=O)CCC)cc2)cc1OCC | inconclusive: 25.1 µM [inhibitor, partial curve] | 
CCOC(=O)c1c(-c2ccccc2)oc2ccc(OCC(O)CNCCN(C)C)cc12 (centres undefined) | inconclusive: 8.91 µM [inhibitor, partial curve, poor fit] | 
CC1=C(C(=O)Nc2cccc(C(=O)NC(C)C)c2)SCCO1 |  | inactive: -9.77%
O=c1c2ccccc2nc(N2CCCC2)n1-c1ccc(Cl)cc1 | inconclusive: 3.98 µM [inhibitor, partial curve, poor fit] | 
CCN1CCN(CCCNC(=O)CCC(=O)N2CCOc3ccccc32)CC1 |  | inactive: 12.9%
COc1ccc(-c2nc(N)ncc2-c2csc(C)n2)c(O)c1 | inconclusive: 5.62 µM [inhibitor, single point] | 
CC(=O)c1ccc(NC(=O)CN2C(=O)/C(=C/C(C)=C/c3ccccc3)SC2=S)cc1 | inconclusive: 2 µM [inhibitor, single point] | 
Cc1cc(Nc2ccc(Cl)cc2)n2nnnc2n1 | inconclusive: 5.01 µM [inhibitor, single point] | 
COCc1cc(C)nc(SCC(=O)Nc2cc3c(cc2C#N)OCO3)c1C#N | active: 10 µM | 
CNC(=O)c1cc2c(cn1)[nH]c1ccccc12 | inconclusive: 31.6 µM [inhibitor, single point] | 
CC(C)c1ccc(NC2CCCN(C(=O)c3ccoc3)C2)cc1 (centres undefined) | inconclusive: 31.6 µM [inhibitor, single point] | 
CCN(CC)CCCNC(=O)Cn1nc([N+](=O)[O-])c(Cl)c1C |  | inactive: 12.6%
CCCCc1ccc(/C(C)=N/Nc2cc(N3CCOCC3)nc(C)n2)cc1 | inconclusive: 10 µM [inhibitor, partial curve] | 
CCCCCn1c(N(C)Cc2ccccc2)nc2c1c(=O)[nH]c(=O)n2C | inconclusive: 2.82 µM [inhibitor, partial curve] | 
N#C/C(=C\c1cccc(NC(=O)c2ccccc2Cl)c1)C(=O)NCCc1ccccc1 | inconclusive: 31.6 µM [inhibitor, single point] | 
